We go through five molecules from paper PMC6335422 (Nature Communications, 2019).

First the molecules themselves.
T1: Erh1 (residues 1-104), wild type (S. pombe, UniProt G2TRN4 1-104)
T1 construct: Erh1, S. pombe, residues 1-104, amplified from the S. pombe genome, in a modified pET28a vector without thrombin site (p28a); also called Erh1wt; Enhancer of rudimentary homolog 1; source: E. coli BL21 (Gold), purified (Ni-chelating resin, size-exclusion chromatography)
T1 sequence (looked up): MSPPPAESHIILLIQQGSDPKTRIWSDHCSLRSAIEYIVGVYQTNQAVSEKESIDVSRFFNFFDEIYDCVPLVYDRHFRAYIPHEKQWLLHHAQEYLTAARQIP

T2: FLAG-Mmi1 WT (S. pombe) (UniProt O74958)
T2 sequence: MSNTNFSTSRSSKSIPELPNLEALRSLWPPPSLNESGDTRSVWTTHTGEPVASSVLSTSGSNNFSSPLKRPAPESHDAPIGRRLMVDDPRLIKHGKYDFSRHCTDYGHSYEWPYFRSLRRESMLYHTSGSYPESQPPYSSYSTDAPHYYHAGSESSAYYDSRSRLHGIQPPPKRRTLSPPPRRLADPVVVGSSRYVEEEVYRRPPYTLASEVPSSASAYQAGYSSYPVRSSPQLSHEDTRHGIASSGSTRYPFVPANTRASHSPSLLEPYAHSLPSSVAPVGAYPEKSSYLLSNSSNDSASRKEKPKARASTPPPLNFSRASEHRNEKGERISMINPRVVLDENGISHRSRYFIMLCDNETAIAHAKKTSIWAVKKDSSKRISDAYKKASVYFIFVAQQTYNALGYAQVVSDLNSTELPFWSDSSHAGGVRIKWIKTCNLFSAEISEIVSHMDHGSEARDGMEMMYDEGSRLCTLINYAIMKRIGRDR

T3: GST-tagged YTH domain of Mmi1 (S. pombe) (UniProt O74958)
T3 sequence: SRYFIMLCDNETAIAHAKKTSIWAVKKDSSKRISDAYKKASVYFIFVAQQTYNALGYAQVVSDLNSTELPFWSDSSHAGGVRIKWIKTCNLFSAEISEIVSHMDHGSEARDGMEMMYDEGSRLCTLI

T4: GST-tagged Mmi1^106-122 (S. pombe) (UniProt O74958)
T4 sequence: YGHSYEWPYFRSLRRES

T5: GST-tagged Mmi1^95-111 (S. pombe) (UniProt O74958)
T5 sequence: GKYDFSRHCTDYGHSYE

B1: Erh1-GFP (protein, UniProt G2TRN4 1-104)
chain: T1 sequence (looked up)
B2: His-tagged Erh1 (residues 1-104) (natural protein, S. pombe, UniProt G2TRN4 1-104, looked up)
chain: T1 sequence (looked up)
notes: Erh1 (Enhancer of rudimentary homolog 1), S. pombe, residues 1-104; Cloned into p28a, a modified pET28a without a thrombin cleavage site; Homodimer by SEC and in the crystal; also called Enhancer of rudimentary homolog 1; source: E. coli BL21 (Gold), purified (Ni-chelating resin, SEC)

No constants are given. Whether binding was seen depends on the method and setting. For some of these results: Binding seen in cells or lysates may run through a third protein. Some binding calls cover weakened binding; strength is not graded here. Tags and fused reporters may be left off the sequences shown.

Test [1] deals with T1, Erh1 (residues 1-104), wild type. Briefly: ITC; SUMO-tagged Mmi1 peptides titrated into Erh1 in the sample cell; MicroCal iTC200, 293 K; 20 mM Tris-HCl pH 7.5, 150 mM NaCl; single-site binding model; both purified.
For test [2], the target named is T2, FLAG-Mmi1 WT (S. pombe). Put plainly: co-IP; extracts of S. pombe cells expressing Erh1-GFP and FLAG-Mmi1 WT or W112A under native promoters; antibody-conjugated beads, Western blot.
Test [3] addresses T3, GST-tagged YTH domain of Mmi1 (S. pombe). Put plainly: pull-down; GST-Mmi1 fusion proteins incubated with Erh1, collected with glutathione-agarose resin, eluted, SDS-PAGE with Coomassie blue staining; both purified.
The target in test [4] is T4, GST-tagged Mmi1^106-122 (S. pombe). The test is described as above.
In test [5] the target is T5, GST-tagged Mmi1^95-111 (S. pombe). Described as above.
The target in test [6] is B2. Put plainly: ITC; MicroCal iTC200, 293 K, 20 mM Tris-HCl pH 7.5, 150 mM NaCl; SUMO-tagged Mmi1 peptides titrated into Erh1 in the cell; single-site binding model; both purified. (Isothermal titration calorimetry measures the heat released or taken up as one component is titrated into another.)

On to GKYDFSRHCTDYGHSYE (domain or fragment, UniProt O74958 95-111) [SUMO-tagged Mmi1 95-111], for which, in test [1], the binding entry is recorded as “no binding”.

Regarding GKYDFSRHCTDYGHSYEAPYFRSLRRES (domain or fragment, UniProt O74958 95-122) [SUMO-tagged Mmi1 95-122 W112A], the binding result in test [1] is given as “no binding”.

Regarding B1, in test [2], the binding result is “binds”.

With B2, the binding result in test [3] was “no binding”; in test [4], “binds”; in test [5] it was “no binding”.

Take GKYDFSRHCTDYGHSYE (domain or fragment, UniProt O74958 95-111) [SUMO tagged Mmi1^95-111]: the binding result in test [6] was “no binding”.
